According to the supplement of paper PMC11417369:
± gives the standard deviation of the averaged measurements. This is one part of the list.

test system: PfAP2-LT AP2 domain (GST-tagged); test: gcPBM binding intensity (ln(normalized median fluorescence intensity)); higher = stronger DNA binding
Procedure, shortened: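 GST-tagged P. falciparum DNA-binding domains produced in E. coli were incubated for 1 h on an Agilent 4 × 180k array of primer-extended double-stranded 36-bp intergenic genomic probes with negative controls. Binding intensity is the highest Masliner-normalised natural-log median intensity across replicate spots of either probe orientation, with bound protein detected by Alexa488 anti-GST antibody at 488 nm.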

Question: How did the “gcPBM binding intensity (ln)” value turn out when “ACATTAACATTGTTGGTGCAAAATTAATATGTTTTT [GTGCAC_site9673]” was run?
Answer: 8.75 ± 0.44

Question: Which “gcPBM binding intensity (ln)” value does the source give for “TTAAATATTTTTTATACACACATTTCTTATTTAACT [CACACA_site229]” here?
Answer: 8.88 ± 0.54

Question: How did the “gcPBM binding intensity (ln)” value turn out when “TAATTATTATTAATAGTACACACTATGGCATTTCAA [CACACA_site2488]” was run?
Answer: 8.71 ± 0.43

Question: How did the “gcPBM binding intensity (ln)” value turn out when “CAAACATATTAATGTACACACACCCACCCACAAACA [CACACA_site2752]” was run?
Answer: 10.2 ± 0.29

Question: How did the “gcPBM binding intensity (ln)” value turn out when “TATTATATATATATATGTACATATTGTATGTTATAT [XGTACX_site5303]” was run?
Answer: 9.16 ± 0.4

Question: How did the “gcPBM binding intensity (ln)” value turn out when “TTTTTTTCAATATTTGCACACGATTAAAATATTTAA [CACACA_site5266]” was run?
Answer: 8.71 ± 0.38

Question: “TATGTGAATATTGAGGTGCGGTTGTTAAAATTTATA [GTGCAC_site9915]” was tested. Which “gcPBM binding intensity (ln)” value did it give?
Answer: 8.79 ± 0.19

Question: How did the “gcPBM binding intensity (ln)” value turn out when “ATTATTCAGGTAAAGTGTACAGGAGAAAAATAAAAT [XGTACX_site334]” was run?
Answer: 8.94 ± 0.6

Question: With “ATATATATATATATATGTACGTATAATATATATATG [XGTACX_site2212]” as the sequence, how does the “gcPBM binding intensity (ln)” value read?
Answer: 9.465 ± 0.078

Question: “CGCACCCAAATATATACACACATATATATATATATA [CACACA_site1651]” was tested. Which “gcPBM binding intensity (ln)” value did it give?
Answer: 10.1 ± 0.16

Question: For “ATTGTAAGGAAACACACACACATATATATGTATATA [CACACA_site676]”, which “gcPBM binding intensity (ln)” value is on record?
Answer: 9.68 ± 0.29

Question: Which “gcPBM binding intensity (ln)” value does the source give for “AAATAAATACTAGGCACACACACATATATATATATA [CACACA_site2079]” here?
Answer: 10.1 ± 0.15

Question: Which “gcPBM binding intensity (ln)” value does the source give for “TATATGTTTAATTTCACACACAAATATGCATTTTAA [CACACA_site7881]” here?
Answer: 9.04 ± 0.36

Question: “ATTATTGTAATATTAGCACACATTACCTCACTACAA [CACACA_site2560]” was tested. Which “gcPBM binding intensity (ln)” value did it give?
Answer: 9.03 ± 0.44

Question: Which “gcPBM binding intensity (ln)” value does the source give for AAATTTGCTTTACCAGTGCAAAAAAAAAAAAAAAAA here?
Answer: 8.58 ± 0.42

Question: With “AAATCACATAAAAATAGTACTTTTTTTTTTTTTTTT [XGTACX_site2696]” as the sequence, how does the “gcPBM binding intensity (ln)” value read?
Answer: 8.57 ± 0.34

Question: For “TGTTTTTATCCTTATGGTACAGTATAATACTTACAG [XGTACX_site6381]”, which “gcPBM binding intensity (ln)” value is on record?
Answer: 8.8 ± 0.41

Question: How did the “gcPBM binding intensity (ln)” value turn out when “GGAAAATGAAAACAAGGTACACATAAGAACAAACAA [XGTACX_site1221]” was run?
Answer: 9.32 ± 0.64

Question: How did the “gcPBM binding intensity (ln)” value turn out when “AATAGGGTCATTCAAAAAAAAAAAAAATAATAATAC [CACACA_negctrl_site644]” was run?
Answer: 8.6 ± 0.58

Question: “AATATAAAAATGTTTACACACACACGGAAATATATT [CACACA_site7226]” was tested. Which “gcPBM binding intensity (ln)” value did it give?
Answer: 9.46 ± 0.3

Question: How did the “gcPBM binding intensity (ln)” value turn out when “ATGTTGTACAAACACACACACAAAAAAAAAATAAAA [CACACA_site2406]” was run?
Answer: 9.6 ± 0.27

Question: Which “gcPBM binding intensity (ln)” value does the source give for “TAAAATTAATAAAATATTTTCACTTAATATATATAA [CACACA_negctrl_site1550]” here?
Answer: 8.23 ± 0.52

Question: “ATATATATATGTGGATGTACATATATCTCTTATTAT [XGTACX_site1748]” was tested. Which “gcPBM binding intensity (ln)” value did it give?
Answer: 9.05 ± 0.42

Question: “AATTATTAAATATGTACACACGTACATTTTATAAAT [CACACA_site5341]” was tested. Which “gcPBM binding intensity (ln)” value did it give?
Answer: 8.8 ± 0.4

Question: “AGTACATTATAGAATACACACCTATATATATATATA [CACACA_site4447]” was tested. Which “gcPBM binding intensity (ln)” value did it give?
Answer: 9.68 ± 0.2
